According to PubChem BioAssay AID1631 (National Center for Advancing Translational Sciences (NCATS), 2009):
In all, about 260,000 compounds went through this assay and about 890 (0.34%) were called active. Inconclusive results, whose numbers are uncertain, are shown with a selection of clear calls. Calls come from the whole dose curve; as a rule, active = well fitted activation curve with a large enough effect; inconclusive = small, poorly fitted or top-dose-only effect; inactive = no such curve, though single readings can be large or run the other way. A potency beside an inconclusive call is a rough fit, not a confirmed value.

Biological target: Pyruvate kinase PKM (Homo sapiens) (UniProt P14618)
UniProt P14618, sequence (P14618 whole entry, looked up, canonical isoform): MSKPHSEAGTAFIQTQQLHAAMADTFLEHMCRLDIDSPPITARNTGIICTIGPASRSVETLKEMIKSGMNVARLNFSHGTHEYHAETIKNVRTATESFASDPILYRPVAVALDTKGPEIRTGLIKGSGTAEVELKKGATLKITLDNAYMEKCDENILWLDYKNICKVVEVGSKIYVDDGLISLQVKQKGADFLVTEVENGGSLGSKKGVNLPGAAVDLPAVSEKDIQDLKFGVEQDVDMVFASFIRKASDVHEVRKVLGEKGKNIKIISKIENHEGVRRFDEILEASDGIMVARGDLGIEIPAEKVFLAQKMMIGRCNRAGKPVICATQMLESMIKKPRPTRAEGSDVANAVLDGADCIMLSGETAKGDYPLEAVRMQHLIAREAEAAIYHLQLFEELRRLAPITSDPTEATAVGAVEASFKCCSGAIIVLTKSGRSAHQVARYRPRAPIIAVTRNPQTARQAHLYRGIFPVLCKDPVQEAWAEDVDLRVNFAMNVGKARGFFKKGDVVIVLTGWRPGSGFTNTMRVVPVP
Test: qHTS Assay for Activators of Human Muscle isoform 2 Pyruvate Kinase; note: nearly all actives have a fitted effect of over 55% in size
Conditions: purified PKM2, Kinase-Glo ATP luminescence; Potency: activation; activation: at 57.5 µM (top of the series), 0% is enzyme alone, no compound
From the text: NIH Chemical Genomics Center [NCGC] Matthew G. Vander Heiden, M.D., Ph.D. [Harvard Medical School, 77 Avenue Louis Pasteur, Boston, MA 02115] MLPCN Grant: 1 R03 MH085679-01 NCGC Assay Overview: Human pyruvate kinase muscle 2 (hPK-M2) enzyme was supplied as a highly purified (>95% pure) preparation from Harvard Medical School and assayed for its ability to generate ATP from ADP using phosphoenolpyruvate (PEP) as a substrate. ATP generation was detected in a coupled reaction by luciferase-mediated luminescence, an ATP-dependent process. […] The enzyme was assayed at an intermediate level of activity to screen for both inhibitors and activators.
NCGC Assay Protocol Summary: Three uL of substrate mix (at r.t.) in assay buffer (50 mM Imidazole pH7.2, 50 mM KCl, 7 mM MgCl2, 0.01% Tween 20, 0.05% BSA) was dispensed into white solid bottom 1,536 well microtiter plates so that the final concentrations of substrates in the assay were 0.1 mM ADP and 0.5 mM PEP. 23 nL of compound were delivered by a pin tool and 1 uL of enzyme mix in assay buffer (4 degree Celsius) was added. Plates were incubated at room temperature for 1 hour. Two uL of detection mix (Kinase-Glo, Promega; at 4 degree Celsius protected from light) was added and luminescence read by a ViewLux (Perkin Elmer) at 5 second exposure/plate. Data were normalized to the uninhibited and AC100 inhibition (no enzyme). To monitor activation, the first column contained a titration of the activator, NCGC00031955-01 (16-point 1:2 dilutions in duplicate starting at 57 uM) and the first 16 rows of column 4 contained 57 uM of NCGC00031955-01.
% is set by controls: 0 for no effect and ±100 for the full control effect; potency is the fitted concentration of half-maximal effect; tags give direction and shape of the fitted curve.

Potency, inactive:
COc1cccc2oc3ccc(C#CC4(N)CCCCC4)cc3c(=O)c12
CCN(CC)S(=O)(=O)c1ccc(C(=O)Nc2nnc(CSC)o2)cc1
N#CC1=C(N)C(C#N)(C#N)C(c2ccc[nH]2)C2CCCC=C12 (centres undefined)
CC1CN(CC(=O)NN=C(c2ccccc2)c2ccccc2)CC(C)O1 (centres undefined)
CCOc1ccc(/C=C/C(=O)Nc2ccc(N3CCOCC3)cc2)cc1
Cn1ncc(Cl)c1C(=O)Nc1nc2ccc(Cl)cc2s1
COc1ccc(OC(=O)Nc2ccccc2)cc1
Cn1cc(-c2nc3ccccc3[nH]2)c2ccccc21
N#CC1=C(N)N2C(=C(C#N)C1c1ccc(Br)cc1)Nc1ccccc12 (centres undefined)
COc1cccc(C2CC(c3ccc(Br)cc3)=NN2C(=O)c2ccncc2)c1OC (centres undefined)
COC(=O)c1ccc(NC(=O)CNc2ccccc2)cc1
Nn1c(SCC(=O)Nc2ccc3c(c2)OCCO3)nnc1-c1cccnc1
CC1CCN(CC(=O)Nc2ccc(S(=O)(=O)N3C(C)CCCC3C)cc2)CC1 (centres undefined)
NS(=O)(=O)c1ccc(NC(=O)CN2CCCN(S(=O)(=O)c3ccc(F)cc3)CC2)cc1

Potency, inconclusive:
NC(=O)c1cc([N+](=O)[O-])ccc1NCCc1ccccc1 7.08 µM [rising, partial curve]
Cc1cc(C)cc(N(CC(=O)N2CCN(c3ccccc3)CC2)S(=O)(=O)c2c(C)noc2C)c1 28.2 µM [rising, single point]
Cc1ccc(NC(=S)NC(NC(=O)c2ccco2)C(Cl)(Cl)Cl)cc1 (centres undefined) 31.6 µM [rising, single point]
Cc1csc(NC(=O)C2CCN(C(=O)CSc3nnc(C)n3Cc3ccccc3)CC2)n1 3.16 µM [rising, single point]
Cc1ccc(N2NC(=O)/C(=C\c3cc4c(cc3[N+](=O)[O-])OCO4)C2=O)cc1C 31.6 µM [rising, single point]
CC(=O)Nc1ccc(SCC(=O)N2CCN(S(=O)(=O)c3ccccc3)CC2)cc1 25.1 µM [rising, single point]
COc1ccc(CCNc2ccc(C(CC(N)=O)NC(=O)Cc3cccc4ccccc34)cc2[N+](=O)[O-])cc1 (centres undefined) 8.91 µM [rising, partial curve]
COc1cc(/C=N/O)cc(Br)c1OCC(=O)NCc1ccccc1 39.8 µM [rising, single point]
CC(=O)c1ccc(S(=O)(=O)Nc2ccc(-c3cn4c(n3)SCC4)cc2)cc1 14.1 µM [rising, partial curve]
COCCn1c(SCC(=O)Nc2ncc(C)s2)nc2sc3c(c2c1=O)CCC3 20 µM [rising, single point]
COc1ccccc1NCCC(=O)OCC(=O)NCc1ccco1 25.1 µM [rising, single point]
Cn1c(=O)oc2cc(S(=O)(=O)NCCc3ccccc3)ccc21 17.8 µM [rising, single point]
C=CCN1C(=O)N/C(=C/c2ccc(N3CCOCC3)o2)C1=O 7.08 µM [rising, partial curve]
Cc1cccc(-n2nnc(C(=O)NCc3ccccn3)c2N)c1 8.91 µM [rising, single point]
Cn1c(=O)n(C)c2cc(NS(=O)(=O)c3ccc4c(c3)CCCC4)ccc21 22.4 µM [rising, partial curve]
CC(NC(=O)NNC(=O)c1ccncc1)(C(F)(F)F)C(F)(F)F 5.01 µM [rising, single point]
Oc1ccc(-c2csc(-c3ccccc3)n2)cc1O 5.01 µM [rising, partial curve]
C=CCn1c(SCC(=O)NCCOC)nc2scc(-c3ccco3)c2c1=O 28.2 µM [rising, single point]
Nc1nc(SCc2nc3scc(-c4cccs4)c3c(=O)[nH]2)n[nH]1 31.6 µM [rising, single point]
CC(C)c1ccc(S(=O)(=O)N2CCN(C(=O)c3ccco3)CC2)cc1 17.8 µM [rising, partial curve]
Cc1cc(O)c(C(C)C)cc1N=Cc1cc([N+](=O)[O-])ccc1O 31.6 µM [rising, single point]
CC(C)(C)NC(=S)N/N=C\c1ccc(-c2ccc([N+](=O)[O-])cc2)o1 4.47 µM [rising, partial curve]
Cc1ccc(C(=O)NC(=S)Nc2ccc(-c3ccc(CO)o3)cc2)cc1 14.1 µM [rising, partial curve]
COc1ccc(S(=O)(=O)N(CC(=O)NC2CC2)c2ccc(C)cc2)cc1 25.1 µM [rising, single point]
Cc1c(C(=O)OCCOC(C)C)[nH]c2c1C(=O)CC(c1ccco1)C2 (centres undefined) 28.2 µM [rising, single point]
COc1ccc(CNc2ncc(-c3ccc(F)cc3)n2C)c2ccccc12 0.708 µM [rising, single point]
Cc1cc(NC(=O)CSc2nc3ccsc3c(=O)n2Cc2ccccn2)n[nH]1 20 µM [rising, partial curve]
COc1ccc(C)cc1-n1nnnc1SCC(=O)NC(=O)NCc1ccco1 39.8 µM [rising, single point]
O=[N+]([O-])c1ccc(N/N=C2\CC3CC=CC23)c([N+](=O)[O-])c1 (centres undefined) 8.91 µM [rising, partial curve]
Cn1c(=O)c(=O)n(C)c2cc(S(=O)(=O)CCC(=O)N3CCOCC3)ccc21 12.6 µM [rising, partial curve]
CNC(=S)N(Cc1cccs1)Cc1cc2ccc(OC)cc2[nH]c1=O 6.31 µM [rising, partial curve]
COCCNC(=O)C(Cc1c[nH]c2ccccc12)NC(=O)OCc1ccccc1 (centres undefined) 3.55 µM [rising, single point]
Cn1c(=O)c2[nH]c(-c3ccccc3Cl)c(O)c2n(C)c1=O 3.55 µM [rising, full curve, poor fit]
CN(n1cnc2ccccc2c1=O)S(C)(=O)=O 39.8 µM [rising, single point]
CCS(=O)(=O)N1Cc2ccccc2CC1C(=O)Nc1ncc(C)s1 (centres undefined) 35.5 µM [rising, single point]
CSc1oc(-c2ccco2)nc1S(=O)(=O)c1ccccc1 17.8 µM [rising, single point]
O=C(CN1CCN(Cc2ccccc2)CC1)N1CCCc2c1c(=O)oc1ccc(O)cc21 7.08 µM [rising, single point]
Cn1ccnc1C(O)(c1nnc(-c2ccccc2)o1)C(F)(F)F (centres undefined) 8.91 µM [rising, single point]
CC(=O)N1N=C(c2ccccc2O)CC1c1cccs1 (centres undefined) 12.6 µM [rising, partial curve]
CC(C)Nc1nnc(SCC(=O)Nc2ccc3c(c2)C(=O)c2ccccc2C3=O)s1 7.94 µM [rising, full curve]
CCCCc1n(CC(=O)c2ccc(Cl)cc2)c2ccccc2[n+]1C 3.98 µM [rising, single point]
COc1ccc(/C=C/CN2CCN(CCc3ccccc3)C(CCO)C2)cc1 (centres undefined) 39.8 µM [rising, single point]
O=C(/C=C\c1ccc(-c2ccccc2)o1)c1ccccc1 12.6 µM [rising, partial curve]
O=C(CSc1nc2c(cnn2-c2ccc(F)cc2)c(=O)[nH]1)Nc1nccs1 39.8 µM [rising, single point]
Cc1ccc(/C=N/NC(=O)C2(O)c3ccccc3-c3ccccc32)o1 28.2 µM [rising, single point]
CCCN1CCN(S(=O)(=O)c2ccc3c(c2)OCCO3)CC1 22.4 µM [rising, partial curve]
CCOC(=O)N1CCN(C(=O)COc2cccc3c2CCN(Cc2cccc(C)c2)C3=O)CC1 17.8 µM [rising, single point]
O=C(OCCOc1cccc(Cl)c1)C1CCN(S(=O)(=O)c2ccccc2)CC1 3.98 µM [rising, partial curve]
O=C(O)c1ccccc1Sc1ncnc2sccc12 25.1 µM [rising, single point]

Potency, active:
COc1cccc(S(=O)(=O)Nc2ccc(C(=O)N3CCN(C(=O)c4ccco4)CC3)cc2)c1 1.41 µM
Cc1ccc(C(=O)C2=C(O)C(=O)N(c3ncccn3)C2c2cccc(Cl)c2)o1 (centres undefined) 6.31 µM
CCn1c(Cl)c(C=O)s/c1=N\S(=O)(=O)c1ccccc1 15.8 µM
COc1ccc(/C=N/Nc2nc(-c3ccc(C)cc3)c(NC(C)=O)s2)cc1OC 10 µM
O=C(COC(=O)c1ccc(NS(=O)(=O)c2cccs2)cc1O)NCc1ccccc1 22.4 µM

activation, inactive:
CCOC(=O)CCCNC(=O)N1CCc2nc(COc3ccccc3)c3c(c2C1)CO[C@@H](C)C3 0.176% [at 11.5 µM, 0% is enzyme alone, no compound]
